From the antibiotic and cytotoxicity screens of Wong et al. (2023)
Some of the results follow.

What was measured:
[1] = tested on: HSkMC (human skeletal muscle cells); test: cytotoxicity call (relative viability < 0.9); details: 10 µM
[2] = tested on: HepG2; test: cytotoxicity call (relative viability < 0.9); details: 10 µM
[3] = tested on: S. aureus RN4220; test: growth inhibition call (relative growth <= 0.2); details: 50 µM

Structure (SMILES)	cytotoxicity call [1]	cytotoxicity call [2]	growth inhibition call [3]
CN(C)C(=O)C[C@@H]1CC[C@@H](NC(=O)C2CC2)[C@@H](CO)O1	inactive	inactive	inactive
C/C=C1\[C@H](O[C@@H]2O[C@H](CO)[C@@H](O)[C@H](O)[C@H]2O)OC=C(C(=O)OC)[C@H]1CC(=O)OC[C@H]1O[C@@H](OCCc2ccc(O)cc2)[C@H](O)[C@@H](O)[C@@H]1OC(=O)C[C@@H]1C(C(=O)OC)=CO[C@@H](O[C@@H]2O[C@H](CO)[C@@H](O)[C@H](O)[C@H]2O)/C1=C\C	inactive	inactive	inactive
O=C(CN1CCOCC1)N[C@H]1CC[C@@H](CCn2cc(C3CC3)nn2)O[C@@H]1CO	inactive	inactive	inactive
CC1(C)[C@H]2CC[C@@]1(C(=O)O)C(=O)C2=O	inactive	inactive	inactive
Cc1ccc(S(=O)(=O)N(C)C[C@H]2Oc3ncc(Br)cc3C(=O)N([C@H](C)CO)C[C@@H]2C)cc1	inactive	inactive	inactive
CC(C)C#Cc1ccc2c(c1)O[C@@H](CN(C)C(=O)c1cccc(F)c1)[C@H](C)CN([C@H](C)CO)S2(=O)=O	inactive	inactive	inactive
Cc1ccc(S(=O)(=O)Nc2cccc3c2O[C@@H](CN(C)Cc2ccc(Oc4ccccc4)cc2)[C@@H](C)CN([C@H](C)CO)C3=O)cc1	inactive	inactive	inactive
C[C@H](CO)N1C[C@H](C)[C@@H](CN(C)S(C)(=O)=O)Oc2ccc(NC(=O)CCN3CCOCC3)cc2C1=O	inactive	inactive	inactive
COc1ccc2c3c(n(c2c1)C)[C@H](CO)N(C[C@]13CCN(CC1)C(=O)CN(C)C)C(=O)C1CCCCC1	inactive	inactive	inactive
CN1CCSC1=N	inactive	inactive	inactive
C[C@@H]1O[C@@H]1P(=O)(O)O	inactive	inactive	inactive
CN1C(=O)c2cc(NC(=O)Nc3ccccc3F)ccc2OC[C@@H]2O[C@H](CC(=O)NCc3ccc(-c4ccccc4)cc3)CC[C@H]21	inactive	inactive	inactive
COc1cc(NC(=O)Cn2cnc3c2c(=O)n(C)c(=O)n3C)cc(OC)c1OC	inactive	inactive	inactive
C[C@@H]1CN([C@H](C)CO)C(=O)c2cc(NS(C)(=O)=O)ccc2O[C@H]1CN(C)C(=O)Nc1ccc(F)cc1	inactive	inactive	inactive
C=C(c1ccc(C(=O)O)cc1)c1cc2c(cc1C)C(C)(C)CCC2(C)C	inactive	inactive	inactive
C[C@H]1CN([C@@H](C)CO)C(=O)CCCn2nncc2CO[C@@H]1CN(C)C(=O)Nc1ccc(N2CCCCC2)cc1	inactive	inactive	inactive
C[C@@H]1CN([C@H](C)CO)C(=O)Cc2cc(NC(=O)CCN3CCOCC3)ccc2O[C@H]1CN(C)S(=O)(=O)c1ccccc1	inactive	inactive	inactive
O=C(C[C@H]1C[C@H]2c3cc(NS(=O)(=O)c4ccc(F)cc4)ccc3O[C@H]2[C@@H](CO)O1)NCc1cccnc1	inactive	inactive	inactive
CC(N)(Cc1ccc(O)c(O)c1)C(=O)O (centres undefined)	inactive	active	inactive
C[C@@H]1CN([C@H](C)CO)C(=O)c2cccc(NS(=O)(=O)c3ccc(F)cc3)c2O[C@@H]1CN(C)S(C)(=O)=O	inactive	inactive	inactive

Structure (SMILES)	cytotoxicity call [1]	cytotoxicity call [2]	growth inhibition call [3]
COc1ccc(-c2coc3cc(OC)ccc3c2=O)cc1	inactive	inactive	inactive
CCNc1nc2nonc2nc1NCC	inactive	inactive	inactive
C[C@@H]1CN([C@H](C)CO)C(=O)c2cc(NC(=O)Cn3cnnn3)ccc2O[C@@H]1CN(C)Cc1ccc(C(=O)O)cc1	inactive	inactive	inactive
C[C@@H]1CN([C@@H](C)CO)C(=O)c2cc(C#Cc3ccccn3)cnc2O[C@@H]1CN(C)C(=O)CCN1CCCCC1	inactive	inactive	inactive
C[C@@H](O)CN1CCN(S(=O)(=O)C2CC2)CC1	inactive	inactive	inactive
CC(C)NC(=O)N(C)C[C@@H]1Oc2ccc(NC(=O)CCC(F)(F)F)cc2C(=O)N([C@@H](C)CO)C[C@H]1C	inactive	inactive	inactive
Cc1c(/C=N/c2ccc(C(C)C)cc2)sc2ccccc12	inactive	inactive	inactive
C#CC1(OC(C)=O)CCC2C3CCC4=CC(OC(C)=O)CCC4C3CCC21C (centres undefined)	inactive	active	inactive
COc1ccc(S(=O)(=O)N(C)C[C@H]2Oc3c(NC(=O)Nc4cccc5ccccc45)cccc3C(=O)N([C@@H](C)CO)C[C@@H]2C)cc1	inactive	active	inactive
COc1ccccc1CNC(=O)C[C@H]1CC[C@H]2[C@@H](COC[C@@H](O)CN2C(=O)Nc2ccc(Cl)cc2)O1	inactive	inactive	inactive
C[C@@H]1CN([C@@H](C)CO)C(=O)c2cccc(NS(=O)(=O)c3cn(C)cn3)c2O[C@@H]1CN(C)C(=O)NC1CCCCC1	inactive	inactive	inactive
c1cn(CCN2CCNCC2)cn1	inactive	inactive	inactive
CC(C)CC#Cc1cnc2c(c1)C(=O)N([C@@H](C)CO)C[C@@H](C)[C@@H](CN(C)S(=O)(=O)c1cn(C)cn1)O2	inactive	inactive	inactive
O=C(C[C@@H]1CC[C@H]2[C@@H](COC[C@@H](O)CN2C(=O)c2ccc3c(c2)OCO3)O1)NCCN1CCCC1	inactive	inactive	inactive
C[C@H](CO)N1C[C@H](C)[C@H](CN(C)CC2CCCCC2)Oc2ccc(NC(=O)Nc3ccccc3)cc2C1=O	inactive	inactive	inactive
CC(C)CCCC(=O)N[C@@H](CCNCS(=O)(=O)O)C(=O)N[C@H](C(=O)N[C@@H](CCNCS(=O)(=O)O)C(=O)N[C@H]1CCNC(=O)[C@H]([C@@H](C)O)NC(=O)[C@H](CCNCS(=O)(=O)O)NC(=O)[C@H](CCNCS(=O)(=O)O)NC(=O)[C@H](CC(C)C)NC(=O)[C@H](CC(C)C)NC(=O)[C@H](CCNCS(=O)(=O)O)NC1=O)[C@@H](C)O	inactive	inactive	inactive
Cc1ccc(S(=O)(=O)Nc2cccc3c2O[C@@H](CN(C)Cc2ccc(C(F)(F)F)cc2)[C@H](C)CN([C@H](C)CO)C3=O)cc1	inactive	inactive	inactive
C[C@H]1CN([C@@H](C)CO)C(=O)c2cccc(NC(=O)c3ccncc3)c2O[C@@H]1CN(C)Cc1ccc(-c2ccccc2)cc1	inactive	inactive	inactive
CC(=O)N1CCO[C@H]2CCN(C(=O)c3ccn(C)n3)C[C@H]21	inactive	inactive	inactive
CSc1nc2cc(Cl)c(Oc3cccc(Cl)c3Cl)cc2[nH]1	inactive	inactive	inactive

Structure (SMILES)	cytotoxicity call [1]	cytotoxicity call [2]	growth inhibition call [3]
CC(C)NC(=O)N(C)C[C@@H]1Oc2ccc(NS(=O)(=O)c3ccc(Cl)cc3)cc2CC(=O)N([C@H](C)CO)C[C@H]1C	inactive	inactive	inactive
O=C(C[C@@H]1C[C@@H]2c3cc(NS(=O)(=O)c4ccc(F)cc4)ccc3O[C@@H]2[C@H](CO)O1)NCc1ccccc1F	inactive	inactive	inactive
C[C@@H]1CCCCO[C@@H](CN(C)CC2CCCCC2)[C@@H](C)CN([C@H](C)CO)C(=O)c2cc(NC(=O)NC3CCCCC3)ccc2O1	inactive	inactive	inactive
Cc1cc(C(=O)Nc2cccc3c2O[C@@H](CN(C)S(C)(=O)=O)[C@@H](C)CN([C@@H](C)CO)C3=O)n(C)n1	inactive	inactive	inactive
CO[C@H]1CN(C)C(=O)c2ccc(NC(=O)c3ccccc3)cc2OC[C@H](C)N(C(=O)CN(C)C)C[C@H]1C	inactive	inactive	inactive
COc1ccc(NC(=O)Nc2cccc3c2O[C@@H](CN(C)S(C)(=O)=O)[C@@H](C)CN([C@@H](C)CO)C3=O)cc1	inactive	inactive	inactive
CN1C(=O)[C@H]2[C@H](C1=O)[C@H]1C=C(CCCO)[C@@H]2[C@H](c2ccc(CN3CCCC3)cc2)N1Cc1sc2ccccc2c1Cl	inactive	inactive	inactive
Cc1ccc(S(=O)(=O)Nc2ccc3c(c2)C(=O)N([C@H](C)CO)C[C@H](C)[C@@H](CN(C)C(=O)Nc2c(C)noc2C)OCCCC[C@@H](C)O3)cc1	inactive	inactive	inactive
CCO[C@@H]1OC(C(=O)N2CCN(Cc3ccc4c(c3)OCO4)CC2)=C[C@H](C)[C@H]1CCCOC(=O)NCCCCCC(=O)NO	inactive	inactive	inactive
CC(C)[Si]1(C(C)C)OCc2cc(-c3ccc(-c4ccc(Cl)c(Cl)c4)o3)nc(CCc3ccccc3)c21	inactive	inactive	inactive
COc1ccc(C(=O)Nc2cccc(CN3C(=O)[C@@]4(O[C@@H](CC(=O)N5Cc6ccccc6C[C@H]5CO)[C@H]([Si](C)(C)c5ccc(OC)cc5)[C@H]4C)c4ccccc43)c2)cc1	inactive	active	inactive
COc1ccc(S(=O)(=O)N[C@@H]2CC[C@H](CCNC(=O)CN3CCOCC3)O[C@H]2CO)cc1	inactive	inactive	inactive
NC1CCCCC1N.O=C1[O][Pt][O]C1=O (centres undefined)	inactive	active	inactive
CC(C)(C)CN	inactive	inactive	inactive
CN(c1ccc(N)cc1[N+](=O)[O-])S(C)(=O)=O	inactive	inactive	inactive
Cc1noc(C)c1NC(=O)Nc1ccc2c(c1)C(=O)N([C@H](C)CO)C[C@@H](C)[C@@H](CN(C)Cc1ccc(C(=O)O)cc1)OCCCC[C@@H](C)O2	inactive	inactive	inactive
C[C@H](CO)N1C[C@H](C)[C@H](CN(C)Cc2ccc(-c3ccccc3)cc2)Oc2ccc(NC(=O)Nc3ccc4c(c3)OCO4)cc2CC1=O	inactive	active	inactive
CC12C=CC(=O)C=C1CCC1C2C(O)CC2(C)C1CCC2(O)C(=O)CO (centres undefined)	inactive	inactive	inactive
